{
  "source": "patent US20180273573A1",
  "about": "“INHIBITORS OF MENAQUINONE BIOSYNTHESIS” (Memorial Sloan-Kettering Cancer Center, priority 2015, published 2018)",
  "data": [
    {"target": "E. coli MenE (ecMenE) (Escherichia coli, UniProt P37353)", "sequence (P37353 whole entry)": "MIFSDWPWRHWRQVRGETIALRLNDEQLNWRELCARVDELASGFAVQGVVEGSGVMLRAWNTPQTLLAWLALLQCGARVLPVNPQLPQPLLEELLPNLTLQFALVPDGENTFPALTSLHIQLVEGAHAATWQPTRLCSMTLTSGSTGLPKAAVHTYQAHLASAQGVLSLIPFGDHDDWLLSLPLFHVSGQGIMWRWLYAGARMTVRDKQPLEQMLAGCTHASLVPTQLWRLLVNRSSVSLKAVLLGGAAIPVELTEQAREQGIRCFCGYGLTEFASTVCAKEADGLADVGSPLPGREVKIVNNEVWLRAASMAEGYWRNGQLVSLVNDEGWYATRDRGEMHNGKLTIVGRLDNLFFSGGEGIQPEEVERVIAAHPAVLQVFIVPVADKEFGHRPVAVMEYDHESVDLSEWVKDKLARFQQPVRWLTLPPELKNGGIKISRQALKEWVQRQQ", "assay": "MenE-MenB coupled assay (enzyme inhibition, catalytic parameters)", "settings": "up to a concentration of 100 μM", "values": [
      {"compound": "Nc1ncnc2c1ncn2[C@@H]1O[C@H](COS(=O)(=O)NC(=O)CCC(=O)c2ccccc2-c2cnco2)[C@@H](O)[C@H]1O", "note": "[Compound 104, 5′-O—(N-[4-(2-(5-Oxazolyl)phenyl)-4-oxobutanoyl]sulfamoyl)adenosine]", "inhibition of ecMenE": "no inhibition"},
      {"compound": "Nc1ncnc2c1ncn2[C@@H]1O[C@H](COS(=O)(=O)NC(=O)CCC(=O)c2ccccc2[N+](=O)[O-])[C@@H](O)[C@H]1O", "note": "[Compound 103, 5′-O—(N-[4-(2-Nitrophenyl)-4-oxobutanoyl]sulfamoyl)adenosine]", "inhibition of ecMenE": "no inhibition"},
      {"compound": "Nc1ncnc2c1ncn2[C@@H]1O[C@H](COS(=O)(=O)NC(=O)CCC(=O)c2cccc(C(=O)O)c2)[C@@H](O)[C@H]1O", "note": "[Compound 102, 5′-O—(N-[4″-(3′″-(Carboxyl)phenyl)-4″-oxobutanoyl]sulfamoyl)adenosine]", "inhibition of ecMenE": "no inhibition"}
    ]}
  ]
}
